Source: the supplement of paper PMC4604168 (melanoma cell lines)
Some of the results follow. Most values come without repeats; read them as rough.

Assays:
Test in all cases: cell count relative to DMSO control; melanoma cells; higher = more viable cells
Details in all cases: library dose: low library concentration; 72 h
[1] = test system: COLO792
[2] = test system: COLO800
[3] = test system: COLO829
[4] = test system: G361
[5] = test system: IPC-298
[6] = test system: IST-MEL1
[7] = test system: LB2518-MEL
[8] = test system: LOXIMVI
[9] = test system: MEL-HO
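Further: cell number obtained by counting DAPI-stained nuclei in high-throughput microscope images with image analysis software, screen run in 1,536-well plates.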

Structure (SMILES): COCC[n+]1c2c(n(Cc3cnccn3)c1C)C(=O)c1ccccc1C2=O + Cn1cncc1[C@@](N)(c1ccc(Cl)cc1)c1ccc2c(c1)c(-c1cccc(Cl)c1)cc(=O)n2C [tipifarnib] (first compound 0.0004 µM, partner dose 0.01 µM)
- cell count [1]: 111%
- cell count [2]: 163%
- cell count [3]: 80%
- cell count [4]: 88%
- cell count [5]: 95.8%
- cell count [6]: 85.7%
- cell count [7]: 82.5%
- cell count [8]: 61.1%
- cell count [9]: 86.8%

Structure (SMILES): COCC[n+]1c2c(n(Cc3cnccn3)c1C)C(=O)c1ccccc1C2=O + O=C(CCCCCCC(=O)Nc1ccccc1)NO [vorinostat] (first compound 0.0004 µM, partner dose 0.08 µM)
- cell count [1]: 105%
- cell count [2]: 69.3%
- cell count [3]: 92.6%
- cell count [4]: 100%
- cell count [5]: 98.8%
- cell count [6]: 81.3%
- cell count [7]: 91.9%
- cell count [8]: 91.5%
- cell count [9]: 96.7%

Structure (SMILES): Clc1ccc(Nc2nnc(Cc3ccncc3)c3ccccc23)cc1 [vatalanib] + CCCCCCCCCCCC1=C(O)C(=O)C=C(O)C1=O [Embelin] (first compound 2 µM, partner dose 1.2 µM)
- cell count [1]: 95.2%
- cell count [2]: 59.8%
- cell count [3]: 72.1%
- cell count [4]: 105%
- cell count [5]: 98.7%
- cell count [6]: 92.5%
- cell count [7]: 120%
- cell count [8]: 104%
- cell count [9]: 86.9%

Structure (SMILES): O=C(CCCCCCC(=O)Nc1ccccc1)NO [vorinostat] + O=C(Nc1cccc(Cl)c1)Nc1ncc(CCNc2ncnc3ccsc23)s1 [SNS314] (first compound 0.08 µM, partner dose 0.0008 µM)
- cell count [1]: 92.2%
- cell count [2]: 52.2%
- cell count [3]: 76.1%
- cell count [4]: 100%
- cell count [5]: 98.2%
- cell count [6]: 91.7%
- cell count [7]: 78.6%
- cell count [8]: 71%
- cell count [9]: 93.9%

Structure (SMILES): OCc1c[nH]c2ccccc12 [Indole-3-carbinol] + O=C(O)C(=O)Nc1sc2c(c1C(=O)O)CCNC2 [TCS401] (first compound 0.8 µM, partner dose 1.66667 µM)
- cell count [1]: 115%
- cell count [2]: 136%
- cell count [3]: 97.3%
- cell count [4]: 88.7%
- cell count [5]: 97%
- cell count [6]: 115%
- cell count [7]: 93%
- cell count [8]: 115%
- cell count [9]: 107%

Structure (SMILES): O=C(CCCCCCC(=O)Nc1ccccc1)NO [vorinostat] + CC(C)(C)c1cnc(CSc2cnc(NC(=O)C3CCNCC3)s2)o1 [SNS-032] (first compound 0.08 µM, partner dose 0.01 µM)
- cell count [1]: 105%
- cell count [2]: 74.2%
- cell count [3]: 99.5%
- cell count [4]: 93.2%
- cell count [5]: 102%
- cell count [6]: 102%
- cell count [7]: 114%
- cell count [8]: 45.7%
- cell count [9]: 103%

Structure (SMILES): OCc1c[nH]c2ccccc12 [Indole-3-carbinol] + CO[C@@H]1[C@H](N(C)C(=O)c2ccccc2)C[C@H]2O[C@]1(C)n1c3ccccc3c3c4c(c5c6ccccc6n2c5c31)C(=O)NC4 [Midostaurin] (first compound 0.8 µM, partner dose 0.08 µM)
- cell count [1]: 94.7%
- cell count [2]: 107%
- cell count [3]: 81.6%
- cell count [4]: 77.7%
- cell count [5]: 90.7%
- cell count [6]: 91.6%
- cell count [7]: 86.7%
- cell count [8]: 73.2%
- cell count [9]: 90.1%

Structure (SMILES): Nc1cccc2c1CN(C1CCC(=O)NC1=O)C2=O (stereo not drawn) [lenalidomide] + COc1cc(Nc2ncc(F)c(Nc3ccc4c(n3)NC(=O)C(C)(C)O4)n2)cc(OC)c1OC [Tamatinib] (first compound 1 µM, partner dose 0.4 µM)
- cell count [1]: 63.2%
- cell count [2]: 81.5%
- cell count [3]: 92.9%
- cell count [4]: 69.8%
- cell count [5]: 98.1%
- cell count [6]: 88.1%
- cell count [7]: 81.3%
- cell count [8]: 48.5%
- cell count [9]: 91.6%

Structure (SMILES): OCc1c[nH]c2ccccc12 [Indole-3-carbinol] + CC1(C)NC(=O)N(c2ccc([N+](=O)[O-])c(C(F)(F)F)c2)C1=O [nilutamide] (first compound 0.8 µM, partner dose 1 µM)
- cell count [1]: 102%
- cell count [2]: 117%
- cell count [3]: 110%
- cell count [4]: 110%
- cell count [5]: 98.2%
- cell count [6]: 97.9%
- cell count [7]: 92.5%
- cell count [8]: 95.1%
- cell count [9]: 96.1%

Structure (SMILES): Clc1ccc(Nc2nnc(Cc3ccncc3)c3ccccc23)cc1 [vatalanib] + NC(=O)Nc1cc(-c2cccc(F)c2)sc1C(=O)N[C@H]1CCCNC1 [AZD7762] (first compound 2 µM, partner dose 0.02 µM)
- cell count [1]: 95%
- cell count [2]: 67.9%
- cell count [3]: 104%
- cell count [4]: 89.9%
- cell count [5]: 99.5%
- cell count [6]: 97.4%
- cell count [7]: 114%
- cell count [8]: 101%
- cell count [9]: 93.8%

Structure (SMILES): Clc1ccc(Nc2nnc(Cc3ccncc3)c3ccccc23)cc1 [vatalanib] + Oc1nc(-c2ccc(C(F)(F)F)cc2)nc2c1CSCC2 [XAV939] (first compound 2 µM, partner dose 2 µM)
- cell count [1]: 81.5%
- cell count [2]: 96.8%
- cell count [3]: 81.1%
- cell count [4]: 91.3%
- cell count [5]: 99.3%
- cell count [6]: 92.4%
- cell count [7]: 93.2%
- cell count [8]: 99.3%
- cell count [9]: 93.1%

Structure (SMILES): C#Cc1cccc(Nc2ncnc3cc(OCCOC)c(OCCOC)cc23)c1 [erlotinib] + O=C(CCCCCCC(=O)Nc1ccccc1)NO [vorinostat] (first compound 0.8 µM, partner dose 0.08 µM)
- cell count [1]: 84.4%
- cell count [2]: 72.4%
- cell count [3]: 78.3%
- cell count [4]: 96.5%
- cell count [5]: 92.8%
- cell count [6]: 95.9%
- cell count [7]: 84.3%
- cell count [8]: 106%
- cell count [9]: 91.8%
